The values below come from the supplement of paper PMC6135742.

Where “and” joins values, the source holds several entries; their conditions need not be identical. Equal entries are not always repeated. Structures can show the parent of a compound that is named as a salt. ± gives the standard deviation of the averaged measurements. In all, about 2,600 compounds were measured (“MBP+ mature oligodendrocyte number relative to DMSO vehicle control”: median about -0.34, highest 2% from about 13 on). This is one part of the list.
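Further: 10 µM single dose with 3-day oligodendrocyte differentiation.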

For the assay, the system named is jimpy (Plp1 jimpy) mouse iPSC-derived oligodendrocyte progenitor cells. Briefly: MBP+ mature oligodendrocyte number relative to DMSO vehicle control (SDs above negative control mean); higher = more surviving jimpy oligodendrocytes (rescue). To be noted: 10 µM; 3 days.
With `COc1ccc(-c2oc3c(CC=C(C)C)c(O)cc(O)c3c(=O)c2O)cc1` [Icaritin], the “MBP+ mature oligodendrocyte number” value is -3.18.

On to `O=c1cc(O)cc(/C=C/c2ccc(O)c(O)c2)o1` [Hispidin], for which the “MBP+ mature oligodendrocyte number” value is -0.178.

As to `CCN1CCC[C@H]1CNC(=O)c1cc(S(N)(=O)=O)ccc1OC` [Levosulpiride], the “MBP+ mature oligodendrocyte number” value is 6.1.

As to `Nc1ccc(S(N)(=O)=O)cc1` [Sulfanilamide], the “MBP+ mature oligodendrocyte number” value amounted to 1.24.

Regarding `Cn1c(=O)c(F)c(Nc2ccc(I)cc2F)c2c(=O)n(C[C@@H](O)CO)cnc21`, the “MBP+ mature oligodendrocyte number” value was -5.69.

`COc1ccc(-c2cc3c(C)nc(N)nc3n([C@H]3CC[C@H](OCCO)CC3)c2=O)cn1`: the “MBP+ mature oligodendrocyte number” value is < -6.01.

In the case of `CC(C)N(CCC(=O)c1ccc2ccccc2c1)Cc1ccccc1`, the “MBP+ mature oligodendrocyte number” value is -1.5 and -1.1.

On to `CC(C)(C)C#Cc1cc(N(C(=O)[C@H]2CC[C@H](C)CC2)[C@H]2CC[C@H](O)CC2)c(C(=O)O)s1` [VX-222 (VCH-222, Lomibuvir)], for which the “MBP+ mature oligodendrocyte number” value amounted to 1.16.

On to `CCOC(=O)c1ccc(C#Cc2ccc3c(c2)C(C)(C)CCS3)nc1` [Tazarotene], for which the “MBP+ mature oligodendrocyte number” value is -0.345 ± 0.97.

In the case of `CCC(C)(C)c1ccc(CC(C)CN2C[C@@H](C)O[C@@H](C)C2)cc1` (some centres not stated) [Amorolfine HCl], the “MBP+ mature oligodendrocyte number” value came to 28.8.

Turning to `COc1ccc(CCN(C)CCCC(C#N)(c2ccc(OC)c(OC)c2)C(C)C)cc1OC` (racemic) [(±)-Verapamil hydrochloride], the “MBP+ mature oligodendrocyte number” value is -2.6.

For the compound `COc1ccc(CCN(C)CCCC(C#N)(c2ccc(OC)c(OC)c2)C(C)C)cc1OC` (racemic) [Verapamil HCl], the “MBP+ mature oligodendrocyte number” value is -2.38.

Regarding `CNC1(C)C2CCC(C2)C1(C)C` (configuration not stated) [Mecamylamine hydrochloride], the “MBP+ mature oligodendrocyte number” value is -0.872.

`O=C(NCc1ccc(Oc2ccccc2)cc1)c1nc(-c2cc(Br)c(O)c(Br)c2)no1`: the “MBP+ mature oligodendrocyte number” value turned out to be 0.829.

Consider `CCCCCCCCCCCCCCCC[N+](C)(C)C` [Cetrimonium Bromide (CTAB)], for which the “MBP+ mature oligodendrocyte number” value is < -6.35.

As for `Cc1c(Cn2c(C)nc3c(C(=O)O)cc(N4CCOCC4)cc32)cccc1C(F)(F)F`, the “MBP+ mature oligodendrocyte number” value is 2.25.

`COc1cccc(OC)c1-c1cc(C(=O)NC2(C(=O)O)C3CC4CC(C3)CC2C4)nn1-c1ccc(C(=O)N(C)CCCN(C)C)cc1C(C)C` (configuration not stated): the “MBP+ mature oligodendrocyte number” value came to 1.39.

As for `Cn1c(=O)c2c(ncn2CC(O)CO)n(C)c1=O` (configuration not stated) [Dyphylline], the “MBP+ mature oligodendrocyte number” value came to 0.0731.

Consider `CCCc1nc(C(C)(C)O)c(C(=O)OCc2oc(=O)oc2C)n1Cc1ccc(-c2ccccc2-c2nnn[nH]2)cc1` [Olmesartan Medoxomil], for which the “MBP+ mature oligodendrocyte number” value was -1.1.

For `NC(=O)c1cccnc1` [Nicotinamide (Vitamin B3)], the “MBP+ mature oligodendrocyte number” value amounted to 0.253.

Consider `Nc1nccs1` [Aminothiazole], for which the “MBP+ mature oligodendrocyte number” value is 3.03.

With `CC(C)[C@H](NC(=O)c1ccc2ccccc2n1)C(=O)N[C@@H](CC(=O)O)C(=O)COc1c(F)cccc1F`, the “MBP+ mature oligodendrocyte number” value came to 24.8.
